# Assay results from PubChem BioAssay AID463173 (ICCB-Longwood Screening Facility, Harvard Medical School, 2010).
# The campaign covered roughly 52,000 compounds. About 1,700 (3.3%) were called active. Rule as the data show it: active = survival mostly below about 52% (no sharp cut-off); inactive = mostly above about 56%. The list shows a part of the results.
# Tested on: Wild type
# Assay: S. aureus survival, RN4220 and DeltatarO strains – OD600, teichoic acid synthesis inhibitors, primary screen (AID 463173)
# Conditions: S. aureus RN4220 wild type/DeltatarO growth, OD600, 18 h, stronger effect = lower value, screened at 18.75 µg/mL (by protocol)
row,SMILES,survival
1,Cc1ccc2c(=O)c(C(=O)c3ccc(Cl)cc3)cn(CC(=O)NC3CCCCC3)c2n1,inactive: 83%
2,COc1ccc(NC(=O)c2c(NCc3sccc3C)sc3c2CCCCC3)c(OC)c1,inactive: 94%
3,COc1ccc(C)cc1NC(=O)Cn1c(=O)ccc2cc(S(=O)(=O)N3CCC(C)CC3)ccc21,inactive: 87%
4,CCOc1ccc(CCNC(=O)c2ccc(CS(=O)Cc3cccc(Cl)c3)o2)cc1 (centres undefined),inactive: 56%
5,COC(=O)c1ccc(NC(=O)CSc2ncc3c(n2)-c2cc(Cl)ccc2N(Cc2ccccc2)S3(=O)=O)cc1,inactive: 49%
6,Cc1ccccc1-c1nnc(SCC(=O)c2ccccc2)o1,inactive: 110%
7,O=S(=O)(c1ccc(F)cc1)N(Cc1nc(-c2ccc(Cl)cc2)no1)C1CCCCC1,inactive: 84%
8,O=C(CCS(=O)(=O)c1cc(Br)cc2c1N(C(=O)C1CC1)CC2)NCc1ccccc1Cl,inactive: 81%
9,Cc1cc(C)c(C(N)=O)c(=S)[nH]1,inactive: 94%
10,Cc1cc(N2CCCC2)c2ccccc2n1,inactive: 121%
11,COc1ccc(Br)cc1C(=O)Nc1ccc(-c2nc3cc(Cl)ccc3o2)cc1,inactive: 73%
12,Cc1c(NC(=O)c2cccc3c(Cl)cccc23)cccc1-c1nc2ccccc2o1,inactive: 103%
13,CCOC(=O)N1CCc2c(sc3c2c(=O)n(Cc2ccccc2)c(=O)n3CC(=O)Nc2ccc(C)c(C)c2)C1,inactive: 84%
14,CCC(C(=O)Nc1cc(F)ccc1F)n1nc(-c2cc(C)ccc2C)ccc1=O (centres undefined),inactive: 75%
15,COC(=O)C(C)n1nnc2sc(-c3ccccc3)cc2c1=O (centres undefined),inactive: 88%
16,Cc1ccc(NC(=O)CCC(=O)N2CCSc3ccccc32)cc1Cl,inactive: 87%
17,COC(=O)c1sccc1S(=O)(=O)N(CC(=O)Nc1c(C)cccc1C)c1ccc(C)c(C)c1,inactive: 78%
18,COc1ccc2c(c1)c(=O)c(S(=O)(=O)c1ccc(C)cc1)cn2Cc1ccccc1C,inactive: 92%
19,Cc1c(Cl)cccc1NC(=O)Nc1nnc(N(C)Cc2ccccc2)s1,inactive: 93%
20,c1ccc(C(c2ccccc2)N2CCN(Cc3nnnn3Cc3ccc4c(c3)OCO4)CC2)cc1,inactive: 105%
21,CC(=O)c1ccc(NC(=O)Cn2cc(S(=O)(=O)Cc3ccccc3Cl)c3ccccc32)cc1,inactive: 83%
22,Cc1c(NC(=O)C(C)(C)Oc2ccc(Cl)cc2)cccc1-c1nc2ncccc2o1,active: -3%
23,CC1=C(C(=O)NCc2ccccc2C)C2(CCCCC2)OC1=O,inactive: 88%

row,SMILES,survival
1,Cn1c(=O)c2c(nc(Oc3ccccc3)n2Cc2c(Cl)cccc2Cl)n(C)c1=O,inactive: 73%
2,O=C(COc1ccccc1[N+](=O)[O-])Nc1cccc(-c2nc3ccccc3s2)c1,inactive: 82%
3,COc1ccc(N(CC(=O)Nc2cc(C)ccc2C)S(=O)(=O)c2ccc(OC)c(OC)c2)cc1,inactive: 147%
4,O=C(N/N=C/c1ccncc1)c1ccccc1,inactive: 115%
5,CCN(CC)c1nc(C(F)(F)F)nc2c1nnn2Cc1ccccc1,inactive: 100%
6,CC(C)=NNC(=O)CNc1ccccc1Cl,inactive: 102%
7,COCCCNC(=O)CSc1nc2cc3c(cc2c(=O)n1CCCC(=O)NCc1ccc(OC)cc1)OCO3,inactive: 70%
8,O=C(Nc1ccc(F)cc1F)c1ccc2c(O)c(S(=O)(=O)c3ccc(Cl)cc3)c(=O)[nH]c2c1,inactive: 88%
9,CCOc1ccc(NC(=O)CN2C(=O)COc3ccc(S(=O)(=O)NC4CCCC4)cc32)cc1,inactive: 72%
10,C(#Cc1ccccc1)CN1CCCCC1,inactive: 94%
11,CCc1ccc(C2c3c(oc4ccc(F)cc4c3=O)C(=O)N2c2nc(C)c(C(=O)OC)s2)cc1 (centres undefined),inactive: 70%
12,O=C(/C=N/O)NCCN1CCCCC1,inactive: 109%
13,O=C(COCc1cc(-c2ccc3c(c2)OCO3)on1)NCc1ccccc1Cl,inactive: 79%
14,CCOc1ccc(C(=O)Nc2ccc(S(=O)(=O)Nc3nc(C)cc(C)n3)cc2)cc1OC,inactive: 95%
15,COc1ccccc1OCC(=O)NCc1nc(-c2ccc(Cl)cc2)no1,inactive: 84%
16,CC1=C(c2ccc(C)c(C)c2)S(=O)(=O)N(Cc2ccc(C(=O)NC(C)c3ccccc3)cc2)C1=O (centres undefined),inactive: 70%
17,Cc1ccccc1Cc1c(C)nc2nc(SCC(=O)NCCc3ccc(Cl)cc3)nn2c1C,inactive: 68%
18,O=C(COc1ccccc1)Nc1ccccc1OCc1cc(=O)n2ccccc2n1,inactive: 77%
19,CCCCCCOc1ccc(C2C(=O)N(C3CCCCC3)CC(=O)N2CCCC)cc1 (centres undefined),inactive: 101%
20,CCOc1cccc(C(=O)Nc2cc(-c3ccc(C)cc3)no2)c1,inactive: 92%
21,O=C(CN1C(=O)CCc2cc(S(=O)(=O)N3CCOCC3)ccc21)Nc1cccc(C(F)(F)F)c1,inactive: 84%
22,Cc1ccc2c(=O)cc(C(=O)Nc3sc4c(c3C(=O)NCc3ccccc3)CCCC4)oc2c1C,inactive: 87%
23,CCCn1c(N2CCN(C(=O)N3CCCCC3)CC2)nc2ccccc21,inactive: 116%

row,SMILES,survival
1,Cc1noc(Cn2c(=O)c3cc4c(cc3n(CC(=O)Nc3ccccc3Br)c2=O)OCO4)n1,inactive: 127%
2,O=C(Nc1sc2c(c1C(=O)N1CCCCC1)CCCC2)c1ccccc1Cl,inactive: 75%
3,COc1ccc(NC(=O)CNC(=O)Cn2c(C)cc3ccccc3c2=O)cc1OC,inactive: 78%
4,CN(C)c1ccc(CNC(=O)CCS(=O)(=O)c2ccc3c(c2)oc(=O)n3C)cc1,inactive: 105%
5,CCCCN1C(C(=O)c2ccccc2)=C(OC(C)=O)c2ccccc2S1(=O)=O,active: -2%
6,CCCCN(CCCC)C1=C(C(=O)c2ccccc2)N(C)S(=O)(=O)c2ccccc21,inactive: 70%
7,COC(=O)c1cc2c(cc1N)OCCO2,inactive: 96%
8,C=Cc1ccc(C=C)cc1,inactive: 133%
9,CCCS(=O)(=O)N1CCCC(C(=O)NCCOC)C1 (centres undefined),inactive: 66%
10,Cc1cc(=O)n2nc(N3CCC(C(=O)NCc4ccc(F)cc4)CC3)sc2n1,inactive: 100%
11,CCOc1ccc(NCc2cccn2-c2nnc(N3CCC(C(=O)NCCOC)CC3)s2)cc1,inactive: 84%
12,C=C(C)Cn1c(=O)c2c(nc3n2CCN3c2ccc(F)cc2)n(C)c1=O,inactive: 85%
13,Cc1ccccc1Nc1cc(C(=O)NCc2cccs2)c2ccccc2n1,inactive: 95%
14,COc1ccccc1/C=C/c1nc(C#N)c(NCCc2ccccc2)o1,inactive: 71%
15,CCOc1ccc(-c2nc(Cn3ccn4nc(-c5ccc(OCC)c(Cl)c5)cc4c3=O)c(C)o2)cc1,inactive: 92%
16,CCOc1ccc(N(CC)S(=O)(=O)N2CCCC(C(=O)Nc3cc(Cl)ccc3OC)C2)cc1 (centres undefined),inactive: 81%
17,COc1ccc(CNS(=O)(=O)c2ccc(-c3cnc(C4CC4)o3)cc2)cc1,inactive: 92%
18,COc1ccc(C)cc1N(C)C(=O)c1c2c(nc3ccccc13)C(=O)N(C1CCCCC1)C2,inactive: 79%
19,CC(C)N(Cc1ccccc1)S(=O)(=O)c1ccc(F)cc1,inactive: 113%
20,COc1ccc(Nc2ncc(C(=O)N3CCN(c4ccc(F)cc4)CC3)c3ccccc23)cc1,inactive: 76%
21,COc1ccc(-c2nc3scc(CCNS(=O)(=O)c4ccc(NC(C)=O)cc4)n3n2)cc1,inactive: 63%
22,O=S(=O)(NC1CC1)c1ccc(S(=O)(=O)N(Cc2ccccn2)C2CC2)cc1,inactive: 104%
23,COc1cc2nc(SCC(=O)Nc3ccccc3F)n3nc(-c4ccccc4)nc3c2cc1OC,inactive: 71%

row,SMILES,survival
1,CCOC(=O)c1ccc(NC2SC(=O)N(Cc3cccc(C(=O)O)c3)C2=O)cc1 (centres undefined),inactive: 66%
2,CCc1ccc(NC(=O)CSc2nc3c(sc4ccccc43)c(=O)n2CCCOC(C)C)cc1,inactive: 80%
3,CCOc1ccc(Cn2c(CNS(=O)(=O)c3cccc(Cl)c3)nc3cccnc32)cc1,inactive: 75%
4,COc1ccc(-c2nc3ccc(NS(=O)(=O)c4ccc(Cl)cc4)cc3o2)cc1,inactive: 23%
5,Cc1ccc(CNC(=O)c2ccc(CSCc3ccccc3C)o2)cc1,inactive: 82%
6,Cc1ccc(NCc2nnc(SCc3nc4ccccc4c(=O)[nH]3)n2Cc2ccco2)c(C)c1,inactive: 104%
7,COc1ccccc1C(=O)N1CCN(Cc2cc(=O)oc3cc(C)ccc23)CC1,inactive: 74%
8,CCCCN(CC)C(=O)Cn1ncc2c3ccccc3n(CCC)c2c1=O,inactive: 98%
9,COc1ccc(-n2cc(C(=O)NCc3ccccc3Cl)c3ccccc3c2=O)cc1,inactive: 113%
10,CCCc1cc(-c2ccc(O)c(OCC)c2)c(C#N)c(N)n1,inactive: 105%
11,COc1ccccc1NC(=O)CSC1=Nc2ccccc2C2=NC(CCC(=O)NCc3cccs3)C(=O)N12 (centres undefined),inactive: 71%
12,CCCNC(=O)Cn1nc(-c2ccc(F)cc2)c2cnc3ccc(F)cc3c21,inactive: 82%
13,CCOc1cccc(C(=O)N(Cc2ccc(CC)cc2)C2CCS(=O)(=O)C2)c1 (centres undefined),inactive: 141%
14,Cn1c(=O)[nH]c2cc(-c3noc(-c4cccc(Cl)c4)n3)ccc21,inactive: 76%
15,CCC(C)NC(=O)c1cccc(NC(=O)c2nsc3ccccc23)c1 (centres undefined),inactive: 76%
16,CC(C)(C)c1ccc(Cn2c(=N)n(CC(O)c3ccco3)c3ccccc32)cc1 (centres undefined),active: 53%
17,Cc1ccc(Cl)cc1N(C)C(=O)c1cn(C2CCCCC2)c(=O)c2c1c1ccccc1n2C,inactive: 90%
18,CC(=O)C1=C(c2ccc(Cl)cc2)N(C(C)=O)n2c(nnc2C2CCCCC2)S1,inactive: 85%
19,O=C(O)C1CC(=O)N(CCCN2CCOCC2)C1 (centres undefined),inactive: 113%
20,CCN(Cc1ccccc1)S(=O)(=O)c1ccc2c(c1)CC(C)N2C(=O)C1CCC1 (centres undefined),inactive: 74%
